Test results from the supplement of paper PMC8728848.
This is one part of the list.

How the values were obtained:
Experiment in all cases: glycan array binding signal (z-score within array); higher = stronger binding
Settings in all cases: glycan notation: IUPAC condensed, linker removed
[1] = biological target: GalNAc(b1-4)GlcNAc(b1-2)Man(a1-3)[GalNAc(b1-4)GlcNAc(b1-2)Man(a1-6)]Man(b1-4)GlcNAc(b1-4)GlcNAc
Outline: (§1)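 Glycan array data were curated from 3228 arrays in the Consortium for Functional Glycomics database and kept only where the protein sequence was available. Glycan names were converted to IUPAC-condensed notation, and columns mapping to the same glycan were averaged. The binding signal is a within-array Z-score, averaged across arrays of the same protein sequence at different concentrations or buffers and across linkers. Negative Z-scores can be read as non-binding.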

[2] = biological target: GalNAc(b1-6)GalNAc
Outline: as §1

[3] = biological target: Glc(a1-4)Glc
Outline: as §1

[4] = biological target: Glc(a1-4)Glc(a1-4)Glc(a1-4)Glc
Outline: as §1

[5] = biological target: Glc(a1-6)Glc(a1-6)Glc
Outline: as §1

[6] = biological target: Glc(a1-6)Glc(a1-6)Glc(a1-6)Glc
Outline: as §1

[7] = biological target: Glc(b1-4)Glc
Outline: as §1

[8] = biological target: Glc(b1-6)Glc
Outline: as §1

[9] = biological target: GlcA(b1-3)Gal
Outline: as §1

[10] = biological target: GlcA(b1-3)GlcNAc
Outline: as §1

[11] = biological target: GlcA(b1-6)Gal
Outline: as §1

[12] = biological target: GlcNAc(a1-3)Gal(b1-4)GlcNAc
Outline: as §1

[13] = biological target: GlcNAc(a1-4)Gal(b1-3)GlcNAc
Outline: as §1

[14] = biological target: GlcNAc(a1-4)Gal(b1-4)GalNAc
Outline: as §1

[15] = biological target: GlcNAc(a1-4)Gal(b1-4)GlcNAc
Outline: as §1

[16] = biological target: GlcNAc(a1-4)Gal(b1-4)GlcNAc(b1-3)Gal(b1-4)Glc
Outline: as §1

[17] = biological target: GlcNAc(a1-4)Gal(b1-4)GlcNAc(b1-3)Gal(b1-4)GlcNAc
Outline: as §1

[18] = biological target: GlcNAc(a1-4)Gal(b1-4)GlcNAc(b1-3)Gal(b1-4)GlcNAc(b1-3)Gal(b1-4)GlcNAc
Outline: as §1

[19] = biological target: GlcNAc(a1-4)Gal(b1-4)GlcNAc(b1-3)Gal(b1-4)[Fuc(a1-3)]GlcNAc(b1-3)Gal(b1-4)[Fuc(a1-3)]GlcNAc
Outline: as §1

[20] = biological target: GlcNAc(a1-6)Gal(b1-4)GlcNAc
Outline: as §1

[21] = biological target: GlcNAc(b1-2)Gal(b1-3)GalNAc
Outline: as §1

[22] = biological target: GlcNAc(b1-2)Man(a1-3)[GlcNAc(b1-2)Man(a1-6)]Man(b1-4)GlcNAc(b1-4)GlcNAc
Outline: as §1

[23] = biological target: GlcNAc(b1-2)Man(a1-3)[GlcNAc(b1-2)Man(a1-6)]Man(b1-4)GlcNAc(b1-4)[Fuc(a1-6)]GlcNAc
Outline: as §1

[24] = biological target: GlcNAc(b1-2)Man(a1-3)[GlcNAc(b1-4)][GlcNAc(b1-2)Man(a1-6)]Man(b1-4)GlcNAc(b1-4)GlcNAc
Outline: as §1

[25] = biological target: GlcNAc(b1-2)[GlcNAc(b1-4)]Man(a1-3)[GlcNAc(b1-2)Man(a1-6)]Man(b1-4)GlcNAc(b1-4)GlcNAc
Outline: as §1

[26] = biological target: GlcNAc(b1-2)[GlcNAc(b1-4)]Man(a1-3)[GlcNAc(b1-4)][GlcNAc(b1-2)Man(a1-6)]Man(b1-4)GlcNAc(b1-4)GlcNAc
Outline: as §1

[27] = biological target: GlcNAc(b1-2)[GlcNAc(b1-4)]Man(a1-3)[GlcNAc(b1-4)][GlcNAc(b1-2)[GlcNAc(b1-6)]Man(a1-6)]Man(b1-4)GlcNAc(b1-4)GlcNAc
Outline: as §1

[28] = biological target: GlcNAc(b1-2)[GlcNAc(b1-6)]Man(a1-6)[GlcNAc(b1-2)Man(a1-3)]Man(b1-4)GlcNAc(b1-4)GlcNAc
Outline: as §1

[29] = biological target: GlcNAc(b1-2)[GlcNAc(b1-6)]Man(a1-6)[GlcNAc(b1-2)Man(a1-3)][GlcNAc(b1-4)]Man(b1-4)GlcNAc(b1-4)GlcNAc
Outline: as §1

[30] = biological target: GlcNAc(b1-3)Gal
Outline: as §1

[31] = biological target: GlcNAc(b1-3)Gal(b1-3)GalNAc
Outline: as §1

[32] = biological target: GlcNAc(b1-3)Gal(b1-4)Glc
Outline: as §1

[33] = biological target: GlcNAc(b1-3)Gal(b1-4)GlcNAc
Outline: as §1

[34] = biological target: GlcNAc(b1-3)Gal(b1-4)GlcNAc(b1-3)Gal(b1-4)GlcNAc
Outline: as §1

[35] = biological target: GlcNAc(b1-3)GalNAc
Outline: as §1

[36] = biological target: GlcNAc(b1-3)Man
Outline: as §1

[37] = biological target: GlcNAc(b1-3)[GlcNAc(b1-4)][GlcNAc(b1-6)]GlcNAc
Outline: as §1

B1: UEA-I (Ulex europaeus), P22972 (protein)
chain: SDDLSFKFKNFSQNGKDLSFQGDASVIETGVLQLNKVGNNLPDETGGIARYIAPIHIWNCNTGEVASFITSFSFFMETSANPKAATDGLTFFLAPPDSPLRRAGGYFGLFEDTKDNDSSYQTVAVEFDTIGSPVNFDDPGFPHIGIDVNRVKSINAERWNKRYGLNNVANVEIIYEASSKTLTASLTYPSDQTSISVTSIVDLKEILPEWVSVGFSGGTYIGRQATHEVLNWYFTSNLIN
glycan array binding signal (z-score) [1]: -0.173
glycan array binding signal (z-score) [2]: -0.187
glycan array binding signal (z-score) [3]: -0.177
glycan array binding signal (z-score) [4]: -0.186
glycan array binding signal (z-score) [5]: -0.177
glycan array binding signal (z-score) [6]: -0.177
glycan array binding signal (z-score) [7]: -0.178
glycan array binding signal (z-score) [8]: -0.185
glycan array binding signal (z-score) [9]: -0.18
glycan array binding signal (z-score) [10]: -0.167
glycan array binding signal (z-score) [11]: -0.183
glycan array binding signal (z-score) [12]: 0.042
glycan array binding signal (z-score) [13]: -0.177
glycan array binding signal (z-score) [14]: -0.175
glycan array binding signal (z-score) [15]: -0.164
glycan array binding signal (z-score) [16]: -0.152
glycan array binding signal (z-score) [17]: 0.148
glycan array binding signal (z-score) [18]: -0.063
glycan array binding signal (z-score) [19]: -0.157
glycan array binding signal (z-score) [20]: -0.176
glycan array binding signal (z-score) [21]: -0.183
glycan array binding signal (z-score) [22]: -0.183
glycan array binding signal (z-score) [23]: -0.183
glycan array binding signal (z-score) [24]: -0.175
glycan array binding signal (z-score) [25]: -0.182
glycan array binding signal (z-score) [26]: -0.174
glycan array binding signal (z-score) [27]: -0.173
glycan array binding signal (z-score) [28]: -0.186
glycan array binding signal (z-score) [29]: -0.171
glycan array binding signal (z-score) [30]: -0.183
glycan array binding signal (z-score) [31]: -0.188
glycan array binding signal (z-score) [32]: -0.183
glycan array binding signal (z-score) [33]: -0.184
glycan array binding signal (z-score) [34]: -0.182
glycan array binding signal (z-score) [35]: -0.184
glycan array binding signal (z-score) [36]: -0.177
glycan array binding signal (z-score) [37]: -0.181
